{"source": "PubChem BioAssay AID1508623", "about": "(National Center for Advancing Translational Sciences (NCATS), 2021)", "note": "Screen size: about 48,000 compounds; about 450 (0.94%) were called active. Inconclusive results (about 19%) are left out. The call rests on the fitted dose curve; in most records, active means well fitted inhibition curve with a large enough effect; inconclusive means small, poorly fitted or top-dose-only effect; inactive means no such curve, though single readings can be large or run the other way. This is one part of the list. Potency means the concentration at half of the fitted maximal effect.", "data": [{"test": "Primary qHTS for Identification of Small Molecule Inhibitors of Huntingtin Promoter Activity; further: nearly all actives have a fitted effect of over 50% in size", "conditions": "HEK293 HTT promoter firefly luciferase reporter (activity 0% = vehicle and -100% = no light), 24 h; series mostly up to 57.5 µM; activity change, negative = inhibition: at the top concentration", "summary_of_the_method": "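Firefly luciferase readout (Dual-Glo, 10 min RT) after 24 h, 37 °C compound exposure (final up to 57.5 uM) of HEK293 reporter cells cultured 24 h beforehand; PTC124 at 50 uM final as control inhibitor; activity scaled vehicle 0%, zero RLU -100%.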", "values": [{"smiles": "Cc1ccc(N2C(=O)CSC23C(=O)Nc2ccccc23)cc1F", "note": "(stereo not drawn)", "activity change, negative = inhibition": "inactive: -21.1%"}, {"smiles": "Cc1cccc(-c2nc3c4ccccc4n(CC(=O)Nc4cc(F)ccc4F)c(=O)n3n2)c1", "activity change, negative = inhibition": "inactive: 0%"}, {"smiles": "COc1ccc(C(=O)Cn2c(=O)n3nc(CCn4nc(C)cc4C)nc3c3cc(OC)c(OC)cc32)cc1", "activity change, negative = inhibition": "inactive: -7.56%"}, {"smiles": "COc1ccc(S(=O)(=O)Nc2c(C)n(C)n(-c3ccccc3)c2=O)cc1Br", "activity change, negative = inhibition": "inactive: -13.4% [at 11.5 µM]"}, {"smiles": "COc1ccccc1N1CCN(C(=O)CSc2nc(C)cc(=O)[nH]2)CC1", "activity change, negative = inhibition": "inactive: -14%"}, {"smiles": "CC(C)Nc1cc(N2CCN(C3CCCCC3)CC2)c2noc3c2c1C(=O)c1ccccc1-3", "activity change, negative = inhibition": "inactive: -9.16%"}, {"smiles": "CCOc1ccc(CNC(=O)C(C)n2ncn3cccc3c2=O)cc1", "note": "(stereo not drawn)", "activity change, negative = inhibition": "inactive: -11.4%"}, {"smiles": "CCOC(=O)c1[nH]c(C)c(CCC(=O)Nc2ccc(C)cc2Cl)c1C", "activity change, negative = inhibition": "inactive: -8.3%"}, {"smiles": "CCOc1ccccc1CNC(=O)C1=C(C)C(=O)OC12CCN(C(C)=O)CC2", "activity change, negative = inhibition": "inactive: -0.88%"}, {"smiles": "COc1cc(NC(=O)CN2CCCN(Cc3cccc(F)c3)S2(=O)=O)cc(OC)c1", "activity change, negative = inhibition": "inactive: -1.82%"}, {"smiles": "CCOC(=O)c1c(C)oc2nc(C)nc(NCCc3ccc(C)cc3)c12", "activity change, negative = inhibition": "inactive: -4.91%"}, {"smiles": "CC1=C(C(=O)N2CCCCC2)C(c2ccc(Cl)cc2)n2c(nc3ccccc32)N1", "note": "(stereo not drawn)", "activity change, negative = inhibition": "inactive: -4.81%"}, {"smiles": "Cc1cccc(C(=O)Nc2ccc(N3CC=C(c4ccccc4C)CC3)c(C(=O)O)c2)c1", "activity change, negative = inhibition": "inactive: 0.865%"}, {"smiles": "Cc1ccc(CN2C(=O)c3ccccc3Sc3ccc(C(=O)N4CCOCC4)cc32)cc1", "activity change, negative = inhibition": "inactive: -27.8%"}, {"smiles": "Cc1ccc(NC(=O)c2oc3ccc(S(=O)(=O)N(C)C4CCCCC4)cc3c2C)c(C)c1", "activity change, negative = inhibition": "inactive: -12.4%"}, {"smiles": "COc1ccc(-c2nc(C)c(CCNC(=O)c3ccc(C(F)(F)F)cc3)s2)cc1OC", "activity change, negative = inhibition": "inactive: -0.789%"}, {"smiles": "CCCNC(=O)c1cc2n(n1)CCCN(Cc1ccc(C)cc1)C2=O", "activity change, negative = inhibition": "inactive: -21%"}, {"smiles": "O=C(COc1ccccc1F)Nc1ccc2nc(SCC(=O)N3CCOCC3)sc2c1", "activity change, negative = inhibition": "inactive: -27.5%"}, {"smiles": "O=S(=O)(c1ccccc1)c1nc(-c2ccc(F)cc2)oc1NCc1ccccc1", "activity change, negative = inhibition": "inactive: -15.7%"}, {"smiles": "COc1ccc(CNC(=O)CCCc2nnc3n(C(C)C)c(=O)c4sccc4n23)cc1", "activity change, negative = inhibition": "inactive: -24.8%"}, {"smiles": "Cc1ccc(S(=O)(=O)Nc2cc(Cl)c3oc4c(c3c2)CCCC4)cc1", "activity change, negative = inhibition": "inactive: -21.6%"}, {"smiles": "COc1ccccc1CNC(=O)CCS(=O)(=O)c1ccc2c(c1)oc(=O)n2C", "activity change, negative = inhibition": "inactive: -5.56%"}, {"smiles": "CCOC(=O)c1cccc(NC(=O)CSc2ncc3c(n2)-c2ccc(Cl)cc2N(Cc2ccccc2)S3(=O)=O)c1", "activity change, negative = inhibition": "inactive: -16.7%"}, {"smiles": "Cc1c(-c2nsc(NC(=O)c3cccs3)n2)nnn1-c1ccc(F)cc1", "activity change, negative = inhibition": "inactive: 40.4%"}, {"smiles": "CCOc1ccc(CNC(=O)CSc2c3c(nc4cc(Cl)ccc24)CCCC3)cc1", "activity change, negative = inhibition": "inactive: -20.4%"}, {"smiles": "CCN(CC)S(=O)(=O)c1ccc2c(c1)N(CC(=O)Nc1c(C)cccc1C)C(=O)C1CCCN21", "note": "(stereo not drawn)", "activity change, negative = inhibition": "inactive: -17.3%"}, {"smiles": "Cc1c(C)n(Cc2ccccc2)c2ccc(C(=O)N3CCN(c4ccccc4)CC3)cc12", "activity change, negative = inhibition": "inactive: 2.24%"}, {"smiles": "COc1ccc(C(=O)NC(c2ccccc2Cl)c2cc(Cl)c3cccnc3c2O)cc1", "note": "(stereo not drawn)", "Potency": "active: 8.91 µM"}, {"smiles": "Cc1ccc(OCC(=O)NCC(=O)OCc2cc(=O)n3nc(C(C)C)sc3n2)cc1", "activity change, negative = inhibition": "inactive: -25.8%"}, {"smiles": "CC(C)Oc1ccc(C(=O)N(Cc2ccc(N(C)C)cc2)Cc2ccco2)cc1", "activity change, negative = inhibition": "inactive: -24.8%"}, {"smiles": "CC(=O)O[C@H]1C[C@@H]2CC[C@H]3[C@H]4C[C@H]([N+]5(C)CCCCC5)[C@@H](OC(C)=O)[C@@]4(C)CC[C@@H]3[C@@]2(C)C[C@H]1[N+]1(C)CCCCC1", "activity change, negative = inhibition": "inactive: -0.329%"}, {"smiles": "CCN(C(=O)Cn1c(=O)oc2cc(S(=O)(=O)N3CCCCCC3)ccc21)c1cccc(C)c1", "activity change, negative = inhibition": "inactive: -12.6%"}, {"smiles": "Cc1cccc(OC(=O)c2snnc2C)c1", "activity change, negative = inhibition": "inactive: -2.63%"}, {"smiles": "Cc1cccc(C)c1Nc1c(-c2ccccn2)nc2ccc(Cl)cn12", "activity change, negative = inhibition": "inactive: -8.36%"}, {"smiles": "COc1ccc(-c2nc(CSCC(=O)N3CCN(c4ccccc4F)CC3)c(C)o2)cc1", "Potency": "active: 28.2 µM"}, {"smiles": "Cn1cc(S(=O)(=O)N2CCCCCC2)cc1C(=O)NCc1ccc(F)cc1", "activity change, negative = inhibition": "inactive: -5.9%"}, {"smiles": "COc1ccc(CNCc2ccc(C(=O)O)s2)cc1", "activity change, negative = inhibition": "inactive: -17.6%"}, {"smiles": "O=C(NCCc1ccc(Cl)cc1)c1ccc(Nc2nc3ccccc3n3nnnc23)cc1", "activity change, negative = inhibition": "inactive: 6.42%"}, {"smiles": "Cc1cccc(NC(=O)C(=O)NCCCN2CCOCC2)c1", "activity change, negative = inhibition": "inactive: 13.9%"}, {"smiles": "COc1ccc(NC(=O)c2nc(SCc3ccc(F)cc3)ncc2Cl)cc1", "activity change, negative = inhibition": "inactive: -10.7%"}, {"smiles": "CCOc1ccc(NC(=O)c2sc(-n3nc(C)c(CCC(C)C)c3C)nc2C)cc1", "activity change, negative = inhibition": "inactive: -17.7%"}, {"smiles": "CCC(C)Nc1nc2c(c(=O)[nH]c(=O)n2C)n1Cc1ccc(F)cc1", "note": "(stereo not drawn)", "activity change, negative = inhibition": "inactive: -13.8%"}, {"smiles": "Cc1ccc(-n2ncc3c(NCCc4ccc(S(N)(=O)=O)cc4)ncnc32)cc1", "activity change, negative = inhibition": "inactive: -34.1%"}, {"smiles": "CCCCOC(=O)CSc1ncnc2sc3c(c12)CCC(C)C3", "note": "(stereo not drawn)", "activity change, negative = inhibition": "inactive: 1.79%"}, {"smiles": "C=Cc1ccc(Cn2c(C(=O)O)c(CNCCc3ccco3)c3ccc(C)cc32)cc1", "activity change, negative = inhibition": "inactive: -24.9%"}, {"smiles": "COC(=O)c1cc2sccc2n1Cc1nc(-c2cccc(Cl)c2)oc1C", "activity change, negative = inhibition": "inactive: -6.17%"}, {"smiles": "OCC(O)CN1CCN(c2ccccc2)CC1", "note": "(stereo not drawn)", "activity change, negative = inhibition": "inactive: 3.95%"}, {"smiles": "CC1=C(c2ccc(C)cc2)S(=O)(=O)NC1=NCc1ccccc1Cl", "activity change, negative = inhibition": "inactive: -5.52%"}]}]}
